ChEMBL document CHEMBL4888484, “Replenishing the malaria drug discovery pipeline: Screening and hit evaluation of the MMV Hit Generation Library 1 (HGL1) against asexual blood stage Plasmodium falciparum ,using a nano luciferase reporter read-out” (2022)
Hit rate of the full screen: of about 150,000 compounds, about 540 (0.36%) showed an effect of 50% or more. Some of the results follow.

Test system: Plasmodium falciparum
Assay: Primary screen in NF54 nanoGlo assay, in single point, at 2uM, 72h; a lower Z score goes with more inhibition
Format: functional, Erythrocyte
Conditions: timepoint 72 hour

Compound | % Inhibition [%] | Z score | % Inhibition (2 µM) [%] | Z score (2 µM)
O=C1OCc2cc(NC(=O)N3CCC4(CC3)c3ccccc3C[C@@H]4O)ccc21 | 5 | -0.85 |  | 
c1ncn(-c2ccc(N3CCC(N4CC(N5CCOCC5)C4)CC3)cc2)n1 | -3 | 0.39 |  | 
Cc1nn(C)c(C)c1[C@@H](NCc1nc(C2CC2)nn1C)C(F)(F)F | 7 | -1.32 |  | 
O=C(NCc1ccc(F)c(Cl)c1)N1CCOC2(CNC2)C1 | 0 | 0.02 |  | 
Cc1[nH]nc(-c2cccc(F)c2)c1NC(=O)c1ccc2c(c1)OCO2 | 1 | -0.1 |  | 
Cc1cc(NS(=O)(=O)c2c(C)n[nH]c2C)ccc1N1CCCC1=O | -2 | 0.25 |  | 
COc1ccc(NC(=O)Cn2cc(-c3ccccc3)c(N(C)C)n2)cc1 | -5 | 0.68 |  | 
CCCCc1noc(Cn2cnc3c2c(=O)n(C)c(=O)n3C)n1 | -8 | 1.07 |  | 
OCc1ccccc1-c1cccc2cccnc12 | -8 | 1.44 |  | 
CN(CCc1ccccn1)C(=O)c1cc(COc2ccc3c(c2)OCO3)[nH]n1 | -1 | 0.1 |  | 
CN(C)S(=O)(=O)N1CCC(c2cc(C(=O)NCC(F)(F)F)[nH]n2)CC1 | 12 | -1.54 |  | 
CC[C@@]1(O)COC2(CN(C(=O)CCc3conc3-c3ccccc3F)C2)C1 | -5 | 0.73 |  | 
C#CCOc1ccc2ccccc2c1[C@@H]1NC(=O)c2cccnc2N1 | 38 | -4.85 |  | 
CCc1c(C(=O)N(CC)CC)c(=O)cc(C)n1Cc1cccs1 | -9 | 1.16 |  | 
CCCc1cc(CCC)n2cc(Cc3cn4c(CCC)cc(CCC)nc4n3)nc2n1 | 1 | -0.15 |  | 
CCOC(=O)CN(c1cc(F)cc(F)c1)S(=O)(=O)c1cccn2cnnc12 | 4 | -0.52 |  | 
COc1cc2c(cc1CNC(=O)N1CCN3C(=O)OC[C@H]3C1)OCCO2 | -9 | 1.61 |  | 
COc1ccc2c(c1)C(N1CCCN(C(=O)CC3CCCC3)CC1)=Nc1cc(C(F)(F)F)ccc1O2 | -3 | 0.4 |  | 
CCC(C)(C)COC(=O)c1csc(COC)n1 | -1 | 0.09 |  | 

Compound | % Inhibition [%] | Z score | % Inhibition (2 µM) [%] | Z score (2 µM)
COc1ccc(NC(=O)Cn2ccc3ccn(Cc4ccccc4)c3c2=O)cc1 | 10 | -1.17 |  | 
O=C(NCCn1ccccc1=O)c1cnn2c1OCCC2 | -11 | 1.43 |  | 
CC(C)CC[C@@]1(C2CCNCC2)NC(=O)N(CC2CC2)C1=O | -17 | 1.65 |  | 
O=C1CCN(C(=O)c2ccc(-c3ccc4c5c(cccc35)CC4)cc2)CCN1 | 0 | 0.03 |  | 
CCC(C)NC(=O)C(C)NC(=O)CCc1ccccn1 (configuration not stated) | -8 | 1.41 |  | 
Cc1nc(-c2cc(C)sc2NC(=O)C(C)(C)C)n(-c2ccccn2)n1 | 1 | -0.09 |  | 
CN(Cc1ncc(C2CC2)o1)C(=O)C1CC1c1ccc(Br)cc1 (configuration not stated) | -3 | 0.35 |  | 
O=C(CCc1ccsc1)Nc1nc(C2CC2)no1 | -2 | 0.23 |  | 
CC1CN(C(=O)COCC(F)(F)F)C(C)CO1 (configuration not stated) | -4 | 0.69 |  | 
Cn1c(=O)c2cn(S(=O)(=O)c3ccc(Cl)cc3)nc2n(C)c1=O | -4 | 0.48 |  | 
CN(C(=O)[C@H]1CCCN(C2CCN(Cc3ccncc3)CC2)C1)C1CCCCCC1 | -4 | 0.61 |  | 
Cc1cc(-c2nnc(N)o2)nn1C(C)C | 7 | -0.9 |  | 
O=C(CN1CCc2nc(NC(=O)c3cnccn3)sc2C1)NCc1ccco1 | -5 | 0.86 |  | 
O=C(CN1C(=O)CN(c2ccccc2)C1=O)N1CCc2sccc2C1 | -11 | 1.92 |  | 
CC(C)C1CC(NS(=O)(=O)c2c(Cl)cnn2C)CCO1 (configuration not stated) | -1 | 0.18 |  | 
Cc1csc(C(C)(C)NCC(=O)N[C@@H](C)c2cccs2)n1 | -3 | 0.6 |  | 
CCc1nc2cc(C(=O)N(C)CC3CCN(C)CC3)cc(NC(=O)c3ccccc3OC)c2n1C | -20 | 2.21 |  | 
C[C@@]1(C(=O)N2CCn3nc(C#N)cc3C2)CCCO1 | -5 | 0.57 |  | 
CC(C)c1c(C(=O)NC[C@H]2CCCO2)cnn1-c1ccccc1 | -7 | 0.67 |  | 

Compound | % Inhibition [%] | Z score | % Inhibition (2 µM) [%] | Z score (2 µM)
O=C1CCOCCN1Cc1c(F)cccc1Cl | -22 | 2.1 |  | 
CC(=O)N[C@H](C(=O)Nc1ccc(C)cc1Cl)C(C)C | -12 | 1.95 |  | 
CCc1nnc(COc2ccc3c(c2)CCNC3=O)o1 | -2 | 0.47 |  | 
Cn1nc(C(=O)N2CCCCCO2)ccc1=O | -10 | 2.06 |  | 
NC(=O)Cn1nc(-c2ccccc2)n(CCc2ccccc2)c1=O | -11 | 0.99 |  | 
COCCn1ccnc1CN(C)Cc1cnccn1 | -7 | 1.32 |  | 
O=C(NCc1ccco1)N[C@H]1CCOC[C@@H]1OCc1ccccn1 | -2 | 0.47 |  | 
CCOc1ccc(C(=O)NCC(=O)Nc2cc(C)n[nH]2)cc1 | -18 | 1.84 |  | 
Cc1ccc(Oc2ncnc3scc(-c4ccccc4)c23)cn1 | -1 | 0.11 |  | 
CC[C@H]1C(=O)NCCN1CCC1CN(C(=O)OC(C)(C)C)C1 | -8 | 1.37 |  | 
COc1ccc([C@H]2CC(=O)NCc3nc4ccc(C)cn4c32)cc1C | -13 | 1.38 |  | 
CCc1ccnc(C(=O)N[C@H]2CCn3nccc3C2)c1 | 7 | -0.87 |  | 
COc1cccc(Cn2ncn(C)c2=O)c1Cl | -4 | 0.63 |  | 
COCc1nc([C@@H]2CCCCCN2C(=O)c2cccnc2OC)no1 | -2 | 0.29 |  | 
Cc1cc(C(=O)NCCc2cccs2)no1 | -3 | 0.46 |  | 
CN(C)/C=C/c1c(C#N)c(=O)ncn1Cc1ccccc1 |  |  | -5 | -0.35
Cc1ccc(NC(=O)[C@@H]2COC3(CCN(C(=O)c4ccco4)CC3)N2C(=O)c2ccccc2)cc1 | -7 | 1.18 |  | 
Cc1c(Cl)c(C(=O)N2CCC3(CC2)[C@H](O)C[C@@H]3O)nn1C | -5 | 0.78 |  | 
